Laboratory results: the supplement of paper PMC3334620
In all, about 33,000 sequences were measured (“E-score (-0.5 to 0.5)”: median about -0.053, highest 2% from about 0.37 on). The list shows a part of the results.

Each sequence was assayed against Hap1 (UniProt P0CE41) (assay: PBM E-score (8-mer binding enrichment) (E-score (-0.5 to 0.5)); higher = stronger / more preferred TF binding; most listed sequences are background and not binding sites). Conditions: protein concentration: 200 nM; construct: GST-DNA-binding domain.
UniProt P0CE41, sequence (P0CE41 whole entry, the tested form may be a part): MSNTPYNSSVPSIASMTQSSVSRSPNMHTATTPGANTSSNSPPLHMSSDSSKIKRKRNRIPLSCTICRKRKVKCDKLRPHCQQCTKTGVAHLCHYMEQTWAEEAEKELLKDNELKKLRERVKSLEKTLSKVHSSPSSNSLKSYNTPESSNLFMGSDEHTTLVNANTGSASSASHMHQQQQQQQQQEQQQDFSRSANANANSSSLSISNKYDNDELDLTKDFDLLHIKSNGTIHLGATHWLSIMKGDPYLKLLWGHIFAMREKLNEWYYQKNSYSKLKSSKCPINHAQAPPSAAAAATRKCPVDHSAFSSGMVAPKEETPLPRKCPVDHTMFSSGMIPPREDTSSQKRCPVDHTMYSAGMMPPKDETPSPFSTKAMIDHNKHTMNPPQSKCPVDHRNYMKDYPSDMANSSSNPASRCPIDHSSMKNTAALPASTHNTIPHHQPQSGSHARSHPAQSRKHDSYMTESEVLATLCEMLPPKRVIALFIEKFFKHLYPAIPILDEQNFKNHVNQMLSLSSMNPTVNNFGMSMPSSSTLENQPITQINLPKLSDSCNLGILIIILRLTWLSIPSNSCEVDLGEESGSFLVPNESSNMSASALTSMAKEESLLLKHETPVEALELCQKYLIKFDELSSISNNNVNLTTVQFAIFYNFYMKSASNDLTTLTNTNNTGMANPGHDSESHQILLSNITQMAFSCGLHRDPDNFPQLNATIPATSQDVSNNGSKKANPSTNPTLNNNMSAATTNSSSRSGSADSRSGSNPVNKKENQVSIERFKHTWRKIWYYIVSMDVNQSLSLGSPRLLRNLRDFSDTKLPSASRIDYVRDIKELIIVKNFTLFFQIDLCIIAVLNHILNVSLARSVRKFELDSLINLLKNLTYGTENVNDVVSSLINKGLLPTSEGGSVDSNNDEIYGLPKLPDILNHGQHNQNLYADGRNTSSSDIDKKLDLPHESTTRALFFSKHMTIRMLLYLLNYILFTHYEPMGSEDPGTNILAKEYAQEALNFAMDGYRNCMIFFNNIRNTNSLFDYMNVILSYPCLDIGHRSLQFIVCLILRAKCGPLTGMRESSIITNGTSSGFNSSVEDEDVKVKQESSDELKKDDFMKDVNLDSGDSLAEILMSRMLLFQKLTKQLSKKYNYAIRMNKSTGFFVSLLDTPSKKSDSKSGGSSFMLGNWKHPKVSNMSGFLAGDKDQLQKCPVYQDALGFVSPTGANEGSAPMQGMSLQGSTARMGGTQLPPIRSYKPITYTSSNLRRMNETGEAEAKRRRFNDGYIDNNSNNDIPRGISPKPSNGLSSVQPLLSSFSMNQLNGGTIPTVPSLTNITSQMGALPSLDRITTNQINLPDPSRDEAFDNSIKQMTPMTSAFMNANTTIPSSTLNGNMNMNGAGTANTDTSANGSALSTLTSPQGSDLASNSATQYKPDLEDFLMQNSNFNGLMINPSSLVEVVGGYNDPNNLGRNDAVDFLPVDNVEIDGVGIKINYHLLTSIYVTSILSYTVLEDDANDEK
How it was run: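 E-scores (a modified Wilcoxon-Mann-Whitney statistic) were assigned by the Universal PBM Analysis Suite to every ungapped eight-base word pooled with its reverse complement. The input came from universal all-10-mer Agilent arrays made double-stranded by primer extension and probed with GST-tagged yeast transcription factors at about 100-200 nM. Fluorescent anti-GST detected bound protein, and masliner normalised the scans.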

Row | Sequence | PBM E-score
1 | CCGTAAGG | 0.195
2 | GTTAGATA | -0.0416
3 | TGACAACA | -0.188
4 | ACTAGGCC | 0.0926
5 | AGTAAAGG | 0.0483
6 | AGAGGTGG | -0.0944
7 | CACGCGAG | 0.0375
8 | GAGCAGAC | -0.143
9 | CACGGTCG | 0.0563
10 | TCTAGGCA | -0.17
11 | CTGTCTAA | 0.00177
12 | TCCAAGCA | -0.169
13 | GATTCCGC | 0.268
14 | CGGTACCG | 0.343
15 | ACGGTGGG | -0.0129
16 | ATCGTAAC | 0.158
17 | GGCTTTTA | 0.216
18 | GCTGGTCC | 0.0163
19 | AATATGTC | -0.141
20 | CGCGAGGA | 0.0251
21 | ACTTGTAA | -0.227
22 | AAATAAGC | -0.036
23 | ATTTAGTC | 0.00353
24 | GCCAACTA | -0.262
25 | CGAAAAGC | 0.0565

Row | Sequence | PBM E-score
26 | TGTCGTAA | -0.241
27 | CCATTCGC | -0.0998
28 | CCCGTGTC | 0.164
29 | CAGAGGAA | -0.214
30 | TGGATACA | -0.288
31 | AAAGTAAG | -0.163
32 | CATCGGGC | 0.24
33 | ACGACTAA | -0.152
34 | GCCAGCAA | -0.158
35 | GGCGGACC | 0.35
36 | CCCGTTGA | -0.00757
37 | CTAAACAC | -0.0466
38 | AGGGATCG | -0.0685
39 | CACCTCAG | -0.254
40 | CGTGAGGC | -0.0632
41 | CAAGGCCA | -0.0751
42 | GGCGGGAA | 0.0695
43 | CTCATCCC | -0.157
44 | ACGACTAT | -0.101
45 | ACCGCCCT | -0.13
46 | CAGATTGC | -0.175
47 | CATCGATA | 0.142
48 | CGCCGACG | 0.274
49 | ACACCCCC | -0.0596
50 | GTGGGAAC | -0.098

Row | Sequence | PBM E-score
51 | GGCGCCAC | 0.159
52 | CAGCTTCC | 0.00993
53 | AGAGCGCC | 0.0628
54 | AGTACCGA | 0.291
55 | GCCACAAC | -0.0952
56 | CCACAGGC | -0.261
57 | AGCCATCG | 0.0308
58 | GACTGATC | -0.19
59 | AAGCCCGC | 0.337
60 | ACGAGCCA | -0.276
61 | GATTGACC | 0.143
62 | GATTGACA | -0.179
63 | AGGGTCTG | -0.31
64 | AGTCTAAT | -0.133
65 | CAGACCAG | 0.0149
66 | CCTGTGCA | -0.236
67 | AGACATTC | -0.168
68 | CCAAAGAA | -0.194
69 | CAGCACTG | -0.165
70 | GGCAAGGA | -0.0722
71 | CCGGTAAA | 0.456
72 | AAGAGAGC | -0.0699
73 | ATAGATAA | 0.114
74 | ACTCGACC | -0.044
75 | CACTGTAG | -0.148

Row | Sequence | PBM E-score
76 | AGACGGCA | -0.0262
77 | ATGGCGCC | 0.0554
78 | AATCGCGA | 0.0866
79 | TATGTCAA | -0.134
80 | CCGATCCG | 0.438
81 | AAGTCGCA | -0.093
82 | CCATAAGC | -0.015
83 | CCTATCGC | 0.194
84 | ATACCTCG | 0.0008
85 | AAGCGGGC | 0.0717
86 | CCACGCAC | -0.11
87 | ATATGGTC | -0.0714
88 | ATCTGCCA | -0.0572
89 | CTCGCTTA | 0.116
90 | AAATTGTT | -0.0229
91 | ACAGCTGC | -0.151
92 | ATGATTGA | -0.127
93 | ATAACCTG | -0.108
94 | CTGACCTA | -0.124
95 | GGAGGGCC | 0.0155
96 | ACCACACA | -0.157
97 | CCTAACGC | 0.204
98 | CATCAGTA | -0.187
99 | AGCTGAAT | -0.238
100 | CGTTCCTC | 0.0909

Row | Sequence | PBM E-score
101 | AACCGAGG | 0.148
102 | CACTGTTA | -0.128
103 | ACCGCTGC | -0.114
104 | CATTGTAA | -0.0956
105 | CATCATGA | -0.191
106 | ACGACTCC | -0.191
107 | AACCGCAG | -0.0736
108 | ATAACTTA | -0.214
109 | CCCCGCCG | 0.259
110 | GAGTTGTA | -0.0764
111 | CATTAACA | -0.0706
112 | AGTGGAAT | -0.00393
113 | CGACTGAG | -0.208
114 | CGCTGATA | 0.0707
115 | ACGGCTGG | 0.00715
116 | AGGTACGG | 0.0524
117 | ACAGGCGG | 0.0805
118 | CAGAGTAG | -0.28
119 | ATGACATG | -0.192
120 | ACGACAAG | -0.153
121 | GACAGTCC | -0.0284
122 | CTTCGAGA | -0.234
123 | GTCAAAAA | -0.186
124 | AAAGTGAC | -0.0776
125 | CCTAGTCA | -0.288

Row | Sequence | PBM E-score
126 | TAAATATA | 0.0175
127 | ACTGGCCT | -0.0517
128 | GCTTGGCA | -0.322
129 | CAGTTCAC | -0.0851
130 | AGAGGCAC | -0.1
131 | CACACAAA | -0.251
132 | GTGCGCGA | 0.0178
133 | ATTAACAG | -0.171
134 | ATATTGTG | -0.0831
135 | GTCAGCTA | -0.17
136 | GTATGGCA | -0.172
137 | ATGCCACG | -0.0192
138 | CAGTATCA | -0.219
139 | CACTTGTA | -0.237
140 | TAACTGAA | -0.186
141 | ACTTTTCG | 0.199
142 | TTAGAAAA | -0.0981
143 | CTGAGCTA | -0.267
144 | GCAGTGCA | -0.136
145 | ACCACGGA | 0.333
146 | TGCGAGAA | -0.143
147 | CCTACTAA | -0.0635
148 | ACTTATCG | 0.415
149 | CCGGTTCC | 0.349
150 | CGAGCCCG | 0.149

Row | Sequence | PBM E-score
151 | CCGTGGAA | 0.245
152 | CCTGGCAG | -0.239
153 | CCCTAACC | -0.0144
154 | TATGCTGA | -0.16
155 | ACTGCAAA | -0.157
156 | ACTCCTAC | -0.215
157 | AGACTCGG | 0.217
158 | CTGCCCAC | -0.237
159 | GCATAAGC | -0.169
160 | CAACATTA | -0.195
161 | ATACCAAG | -0.0833
162 | ACGTCGAC | -0.103
163 | ACCACTCT | -0.133
164 | CATGTGTC | -0.179
165 | CCCAGAGA | -0.226
166 | AATATACC | 0.0775
167 | ACCATACC | -0.0283
168 | ATGAACCA | -0.0935
169 | ATCAGCAT | -0.0371
170 | AAGTGGGC | -0.0823
171 | ACGAGGAG | -0.273
172 | AAAAGTTT | -0.0714
